# The whole screen tested about 150,000 compounds, of which about 540 (0.36%) showed an effect of 50% or more. The list shows a part of the results.
# System: Plasmodium falciparum
# Experiment: Primary screen in NF54 nanoGlo assay, in single point, at 2uM, 72h; a lower Z score goes with more inhibition
# Format: functional, Erythrocyte
# Details: timepoint 72 hour
SMILES,% Inhibition,Z score
C[C@@H]1Oc2ccc(NC(=O)Cc3cccc4ccccc34)cc2NC1=O,-1%,0.22
O=S(=O)(NC[C@@H](CO)CC1CCCC1)C1CC1,12%,-1.29
COc1ccc(CC(=O)N2C[C@@H](CN3CCOCC3)[C@@H](CO)C2)cc1OC,-6%,1.05
CCc1ccc(NC(=O)C2CCCCC2C(=O)OCc2ccc(F)cc2)cc1 (centres undefined),-9%,1.21
COc1ccc(OCC(=O)N(C)[C@H](c2ccc(C)cc2)c2c[nH]c3ccccc23)cc1,-6%,1
Cn1ccnc1-c1cn(C[C@@H](CO)Cc2ccsc2)nn1,-8%,1.47
O=C(c1cc2c(s1)CCCC2)N1CCc2ccccc21,-13%,2.23
CO[C@H]1CCN(CCCC(=O)c2ccc(F)cc2)C1,-14%,1.79
O=C(Cc1ccc2c(c1)OCC2)Nc1ccc2c(c1)C(=O)N1CCC[C@H]1C(O)=N2,2%,-0.28
Cc1nn(C)c2cc(NC(=O)N3CCO[C@H](C4CC4)C3)ccc12,-7%,1.15
FC(F)(F)[C@]1(c2nc(-c3ccccc3)no2)CCNC1,23%,-3.05
CCc1nc([C@@H]2CCCN2CCC(=O)N2CCOCC2)no1,-8%,0.85
COc1ccc(CN2CCC[C@H](CNC(=O)c3cccs3)C2)c(F)c1,2%,-0.24
COc1ccccc1CNC(=O)C(=O)N1CCN(C(c2ccccc2)c2ccccc2)CC1,-3%,0.53
COCC(C)(C)NC(=O)c1coc(COc2ccc3ncccc3c2)n1,0%,0.03
CC1CN(C(=O)c2ccc3[nH]cnc3c2)C(C)CO1 (centres undefined),-13%,1.6
CCOC(=O)c1nn(Cc2ccc(OC)cc2)c2c1CN(C(=O)[C@H]1CCOC1)CC2,-8%,1.04
Cc1ncccc1C(=O)NCCc1csc(N2CCCC2)n1,-2%,0.34
Cc1cc(C(=O)N(Cc2ccsc2)CC(C)C)[nH]n1,-13%,1.96
C[C@H](On1nnc2ccc(Cl)cc21)C(=O)NC(=O)NC1CCCCC1,-4%,0.73
C=C(C)C(=O)Nc1cccc(C(C)=O)c1,-4%,0.57

SMILES,% Inhibition,Z score
Cc1cc(C(C)NC(=O)C(C)(O)CN2C(=O)NC(C)(C)C2=O)c(C)s1 (centres undefined),-6%,0.97
O=C(NCCc1ccncc1)c1cc(Cl)c[nH]1,-4%,0.75
C[C@@H](Cc1ccc2c(c1)CCO2)NC(=O)Nc1cccs1,3%,-0.48
Cc1ccc(F)cc1NC(=O)Cn1c(C)nc2c(c1=O)CN(Cc1ccccc1)CC2,-12%,1.6
COc1ccccc1NC(=O)[C@@H]1CC(C)(C)OC1=O,-14%,1.63
NCC(F)(F)CNC(=O)N1CC[C@H](n2ncc3ccccc32)C1,-16%,2.95
Cc1nn(CC(N)=O)c(C)c1-c1ccc(C(=O)NC[C@H]2CCCO2)cc1,2%,-0.35
CC(=O)c1c(C)[nH]c(C(=O)C(C)N2CCCC2c2ccc3c(c2)OCCCO3)c1C (centres undefined),-6%,1
O=C(Nc1ccc2c(c1)OCCO2)c1cncc(Br)c1,-27%,3.65
Cn1cc(Cl)c(C(=O)NCc2cncn2C2CC2)n1,-6%,1.27
CC1C(C)N(Cc2ccccc2)C(C)CN1c1nc2c(cnn2C)c(=O)[nH]1 (centres undefined),16%,-1.92
Cc1cc(-n2c(C)cc(C(=O)Cn3c(C(F)(F)F)ccc(C(N)=O)c3=O)c2C)no1,38%,-4.59
CCCN(Cc1cc(-c2ccccc2)on1)C(C)=O,-5%,0.62
O=C(CCS(=O)(=O)c1ccc(Cl)cc1)Nc1ccc(N2CCOCC2)cc1,-13%,1.6
Cc1ccsc1CN(CC(C)C)C(=O)c1cc2ncc(CCO)cn2n1,-7%,0.72
Cc1cc(CNC(=O)NCC2(c3ccccc3)CC2)no1,-4%,0.57
O[C@@H](CN1CCN(c2nccs2)CC1)C1CCCCC1,-2%,0.31
NS(=O)(=O)c1ccc(-n2nc(-c3ccccn3)nc2C2CCC2)cc1,-7%,0.8
CO[C@@H]1COC[C@H]1n1cc(CNC2CC(C)c3c(C)cccc32)nn1 (some centres undefined),-11%,1.49
Cn1ccnc1C1(O)CN(S(=O)(=O)c2ccccc2F)C1,-8%,1.59
O=S(=O)(c1ccc2ccccc2c1)n1ccnc1,-34%,3.97
